Data as given in PubChem BioAssay AID602310 (National Center for Advancing Translational Sciences (NCATS), 2012).
Several values for one entry are separate records, joined by “and”; a condition that tells them apart may be missing. Identical values can stand only once. Hit rate of the full screen: of about 410,000 compounds, about 310 (0.076%) were called active. Inconclusive results, whose numbers are uncertain, are shown with a selection of clear calls. Calls follow the shape of the dose curve; as a rule, active = well fitted curve in the direction sought with a large enough effect; inconclusive = small, poorly fitted or top-dose-only effect; inactive = flat fitted curve, though single readings scatter. Potencies beside an inconclusive call are fits to weak or partial responses and may not hold up.

target: DNA dC->dU-editing enzyme APOBEC-3G (Homo sapiens) (UniProt Q9HC16); test: qHTS for Inhibitors of Vif-A3G Interactions: qHTS; details: HeLa A3G-eYFP + Vif (tagged APOBEC3G with the HIV-1 protein that degrades it), YFP fluorescence, overnight; series mostly up to 46.1 µM; activity, negative = active: at the top concentration; also: nearly all actives have a fitted effect of over 60% in size;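 as to activity, negative = active: hits raise eYFP signal because A3G escapes Vif-driven loss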
Outline: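 Read-out is eYFP fluorescence (Ex 488/Em 500-530) from Vif-expressing HeLa A3G-eYFP cells; more signal means A3G escaped Vif-mediated degradation. Cells plated overnight, compound pinned in, incubated overnight at 37 deg C.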
% is scaled to controls: 0 for no effect and ±100 for the full control effect; potency is read from the fitted curve at half-maximal effect.

Chain of UniProt Q9HC16 (Q9HC16 whole entry, looked up): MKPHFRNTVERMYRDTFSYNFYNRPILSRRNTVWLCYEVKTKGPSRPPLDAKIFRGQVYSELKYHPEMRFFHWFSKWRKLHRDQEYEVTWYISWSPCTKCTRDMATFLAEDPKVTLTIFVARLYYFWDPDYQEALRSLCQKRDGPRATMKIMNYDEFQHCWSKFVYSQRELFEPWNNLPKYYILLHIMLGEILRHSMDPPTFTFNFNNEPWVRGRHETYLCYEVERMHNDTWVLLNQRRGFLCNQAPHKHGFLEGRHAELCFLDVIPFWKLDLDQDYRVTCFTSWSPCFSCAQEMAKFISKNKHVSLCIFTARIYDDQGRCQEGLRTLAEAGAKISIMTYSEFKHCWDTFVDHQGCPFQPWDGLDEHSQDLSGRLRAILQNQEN

SMILES | activity, negative = active | Potency
CCN1C(=NCCc2ccc(Br)cc2)N[C@@H](c2ccccc2)[C@H](C(=O)OC)[C@H]1C | inactive: 3.12% | –
O=C(N/N=C/C(Br)=C/c1ccccc1)c1cc(-c2ccco2)[nH]n1 | – | inconclusive: 11.2 µM [inhibitor, partial curve]
Cc1c(Br)c([N+](=O)[O-])nn1CC(=O)Nc1sc2c(c1C(=O)OC(C)C)CCCC2 | inactive: -5.45% | –
CC(=O)C(C(c1ccccc1)c1c[nH]c2ccccc12)[N+](=O)[O-] (stereo unspecified) | – | inconclusive: 2.82 µM [inhibitor, full curve, poor fit]
O=C1C(Cl)=C(N2CCN(c3ccccc3[N+](=O)[O-])CC2)C(=O)c2ccccc21 | – | inconclusive: 3.16 µM [inhibitor, partial curve, poor fit]
CN1CCc2c(sc3c2C(=O)NC(c2ccc(-c4cccc(Cl)c4)o2)N3)C1 (stereo unspecified) | – | inconclusive: 22.4 µM [inhibitor, single point]
CC[C@]12CCCN3CCc4c(n(c5ccccc45)C(=O)C1)C32 (stereo partly specified) | – | inconclusive: 17.8 µM [inhibitor, single point]
Cc1cccc(CS(=O)(=O)c2ncc(Cl)c(C(=O)NCc3ccc4c(c3)OCO4)n2)c1 | – | inconclusive: 14.1 µM [inhibitor, single point]
Cc1onc(-c2c(Cl)cccc2Cl)c1C(=O)N1CCN(c2ccccc2)CC1 | – | inconclusive: 11.2 µM [inhibitor, single point]
COC(=O)c1cc(=O)n(Cc2cccs2)c(=Nc2ccc(F)cc2)s1 | – | inconclusive: 22.4 µM [inhibitor, single point]
COc1ccc(C2C=C3CNS(=O)(=O)C3CC2OC(=O)c2cccc(C)c2)cc1 (stereo unspecified) | – | inconclusive: 3.16 µM [inhibitor, single point]
CCCCOc1ccc(C(=O)Nc2ccc(OCC(=O)N3CCOCC3)cc2)cc1 | inactive: -0.95% | –
Cc1ccc(C)c(Cn2c(=O)n(CCCC(=O)NCc3ccco3)c(=O)c3sccc32)c1 | – | inconclusive: 10 µM [inhibitor, partial curve]
COc1cccc(C2CC(=O)Nc3cc4c(cc32)CCC4)c1 (stereo unspecified) | – | inconclusive: 2 µM [inhibitor, full curve, poor fit]
COCCNc1cc(N2CCN(C3CCCCC3)CC2)c2noc3c2c1C(=O)c1ccccc1-3 | – | inconclusive: 6.31 µM [inhibitor, single point]
COc1ccc(NC(=O)c2c(Cl)n(C)c3ccccc23)cc1 | – | inconclusive: 6.31 µM [inhibitor, partial curve, poor fit]
CCCCN(CCCC)c1ccc(/C=C/c2ccnc3ccccc23)cc1 | – | inconclusive: 17.8 µM [inhibitor, partial curve, poor fit]
Cc1ccc(N2C(=O)c3n[nH]c(C)c3C2c2ccc(C(C)C)cc2)cc1 (stereo unspecified) | – | inconclusive: 35.5 µM [inhibitor, single point]
CC(C)(C)c1ccc(-c2nc(NCc3cccnc3)c3ccccc3n2)cc1 | inactive: -11.7% | –
CC(=O)Nc1c(C)nn(-c2ccccc2)c1N1CCC(C(=O)Nc2cccc(C(F)(F)F)c2)CC1 | inactive: -13.8% | –
CCOC(=O)Cn1c(=O)n(CC2CCCO2)c2nc(-c3ccc(CC)cc3)nc(C(N)=O)c21 (stereo unspecified) | inactive: -0.328% | –

SMILES | activity, negative = active | Potency
COc1ccccc1N1CC(O)=C(c2nc3ccccc3s2)C1=N | – | inconclusive: 22.4 µM [inhibitor, single point]
CCCCc1cc(=O)oc2cc(C)cc(OCC(=O)N3C[C@H]4C[C@@H](C3)c3cccc(=O)n3C4)c12 | inactive: 2.29% | –
Cc1cc(Nc2ccccc2)nc2cc(O)ccc12 | inactive: -2.4% | –
N#CCCn1cc(C=C(C#N)C#N)c(-c2ccc(-c3ccccc3)cc2)n1 | – | inconclusive: 20 µM [inhibitor, single point]
CCOC(=O)c1csc(NC(=O)c2cc(-c3ccccn3)nc3ccccc23)n1 | – | inconclusive: 15.8 µM [inhibitor, partial curve, poor fit]
O=c1[nH]c(/C=C/c2cccc3ccccc23)nc2ccccc12 | – | inconclusive: 17.8 µM [inhibitor, single point]
CCCCc1ccc(NC(=O)Nc2cnccn2)cc1 | – | inconclusive: 3.16 µM [inhibitor, full curve, poor fit]
COc1ccc(OC)c(Nc2c3c(nc4ccccc24)CCC3)c1 | – | inconclusive: 1.41 µM [inhibitor, partial curve, poor fit] and inconclusive: 891 nM [inhibitor, full curve, poor fit]
COC(=O)c1cn(C(=O)c2ccc(OC)cc2)c2ccccc12 | – | inconclusive: 2 µM [inhibitor, full curve]
N#CC(=Cc1ccc(O)c(O)c1)C(=O)NCc1ccccc1 | inactive: -9.21% | –
CN(C)CCC(=O)C(Cc1ccccc1)c1ccccc1 (stereo unspecified) | – | inconclusive: 11.2 µM [inhibitor, partial curve, poor fit]
Oc1ccc(Cl)cc1N=Cc1sc2ccccc2c1Cl | – | inconclusive: 10 µM [inhibitor, partial curve]
O=C(O)CCSCCC(=O)O | inactive: -0.566% | –
COc1cc(NC(=S)Nc2cccc(Cl)c2Cl)c(OC)cc1Cl | inactive: -0.445% | –
N#CC1=C(N)Oc2cc(O)ccc2C1c1cccs1 (stereo unspecified) | – | inconclusive: 25.1 µM [inhibitor, single point]
N#CC1=C(N)Oc2cc(Nc3ccccc3)ccc2C1c1ccncc1 (stereo unspecified) | – | inconclusive: 12.6 µM [inhibitor, single point]
COc1cc(/C=N/NC(=O)c2ccc(N)cc2)ccc1OC(=O)c1cccc(C)c1 | – | inconclusive: 35.5 µM [inhibitor, partial curve, poor fit]
O=c1c(Cl)c(Cl)cnn1Cc1ccccc1Cl | – | inconclusive: 15.8 µM [inhibitor, single point]
N#Cc1sc2nc(-c3cccs3)cc(-c3ccc(Cl)cc3)c2c1N | – | inconclusive: 17.8 µM [inhibitor, partial curve, poor fit]
CC(=O)Nc1sc(N/N=C\c2cccc(Cl)c2)nc1-c1cccs1 | – | inconclusive: 22.4 µM [inhibitor, single point]
